# Measurements from the antibiotic and cytotoxicity screens of Wong et al. (2023).
# Some of the results follow.
# Test system: HSkMC (human skeletal muscle cells)
# Test: cytotoxicity call (relative viability < 0.9)
# Conditions: 10 µM
row,Structure (SMILES),cytotoxicity call
1,C[C@@H]1CN([C@H](C)CO)C(=O)c2cc(NC(=O)C3CCCCC3)ccc2O[C@@H](C)CCCCO[C@H]1CN(C)Cc1ccncc1,inactive
2,COc1ccc(CN(C)C[C@H]2OCCCC[C@H](C)Oc3ccc(NC(=O)Nc4ccc(F)cc4)cc3C(=O)N([C@@H](C)CO)C[C@@H]2C)cc1,inactive
3,CS(=O)(=O)Nc1ccc2c(c1)[C@H]1C[C@@H](CC(=O)NCC3CC3)O[C@H](CO)[C@H]1O2,inactive
4,C[C@@H]1CCCCO[C@H](CN(C)CC2CC2)[C@H](C)CN([C@@H](C)CO)C(=O)c2cc(NC(=O)Nc3ccc(F)cc3)ccc2O1,inactive
5,COc1ccc(S(=O)(=O)N(C)C[C@H]2Oc3ccc(NC(=O)NC(C)C)cc3C(=O)N([C@@H](C)CO)C[C@@H]2C)cc1,inactive
6,C[C@H]1CN([C@@H](C)CO)C(=O)CCCn2cc(nn2)CO[C@H]1CN(C)C(=O)Nc1ccccc1C(F)(F)F,inactive
7,C[C@@H]1CCCCO[C@H](CN(C)C(=O)Nc2ccc(F)cc2)[C@@H](C)CN([C@H](C)CO)C(=O)c2cc(NC(=O)c3ccncc3)ccc2O1,inactive
8,O=C(O)c1ccc2[nH]cnc2n1,inactive
9,O=C(O)C[C@@H]1C=C[C@H](NC(=O)c2ccncc2)[C@@H](CO)O1,inactive
10,C[C@H]1CN([C@@H](C)CO)C(=O)c2cccc(NS(=O)(=O)c3ccc(Cl)cc3)c2O[C@H]1CN(C)Cc1ccc(C(=O)Nc2ccccc2N)cc1,inactive
11,CC(C)NC(=O)Nc1ccc2c(c1)CC(=O)N([C@@H](C)CO)C[C@H](C)[C@@H](CN(C)Cc1ccc(C(=O)O)cc1)O2,inactive

# Test system: S. aureus RN4220
# Test: growth inhibition call (relative growth <= 0.2)
# Conditions: 50 µM
row,Structure (SMILES),growth inhibition call
1,C[C@@H]1CN([C@H](C)CO)C(=O)Cc2cc(NC(=O)Nc3ccccc3)ccc2O[C@H]1CN(C)Cc1ccc(-c2ccccc2)cc1,inactive
2,Cc1noc(C)c1NC(=O)Nc1ccc2c(c1)C(=O)N([C@@H](C)CO)C[C@H](C)[C@@H](CN(C)S(=O)(=O)c1cccs1)OCCCC[C@H](C)O2,inactive
3,COc1ccc(S(=O)(=O)N(C)C[C@H]2OCCCC[C@H](C)Oc3ccc(NS(=O)(=O)c4ccc(Cl)cc4)cc3C(=O)N([C@@H](C)CO)C[C@H]2C)cc1,inactive
4,Cc1n[nH]c(C)c1N,inactive
5,COc1ccc(C(=O)Nc2ccc(CN3C(=O)[C@]4(O[C@H](CC(=O)N(CCO)Cc5ccccc5)[C@@H]([Si](C)(C)c5ccc(OC)cc5)[C@@H]4C)c4ccccc43)cc2)cc1,inactive
6,O=C(Cc1ccncc1)Nc1ccc2c(c1)[C@H]1C[C@H](CC(=O)N3CCc4ccccc4C3)O[C@@H](CO)[C@H]1O2,inactive
7,Cn1cnc(S(=O)(=O)N[C@H]2CC[C@H](CC(=O)NCC3CC3)O[C@@H]2CO)c1,inactive
8,C[C@H]1CN([C@@H](C)CO)C(=O)c2cccc(NC(=O)Nc3ccc(C(F)(F)F)cc3)c2O[C@H]1CN(C)C(=O)Nc1cccc2ccccc12,inactive
9,CN(C)CC(=O)N1CC2(C1)[C@@H](c1ccccc1)[C@@H](CO)N2S(C)(=O)=O,inactive
10,c1cnc2ccc3ncccc3c2c1,inactive
11,C[C@@H]1CCCCO[C@H](CN(C)Cc2ccc3c(c2)OCO3)[C@H](C)CN([C@@H](C)CO)C(=O)c2cc(NC(=O)Nc3ccccc3)ccc2O1,inactive
12,COc1ccc(S(=O)(=O)N(C)C[C@@H]2Oc3ccc(NS(=O)(=O)c4c(C)noc4C)cc3C(=O)N([C@@H](C)CO)C[C@@H]2C)cc1,inactive
13,Nc1nc2c(ncn2COC(CO)CO)c(=O)[nH]1.O,inactive
14,Cc1ccc(S(=O)(=O)N(C)C[C@@H]2Oc3ccc(NS(=O)(=O)c4cccs4)cc3CC(=O)N([C@H](C)CO)C[C@@H]2C)cc1,inactive
15,Cc1ccc(S(=O)(=O)N(C)C[C@@H]2Oc3ccc(NS(=O)(=O)c4ccc(F)cc4)cc3C(=O)N([C@@H](C)CO)C[C@H]2C)cc1,inactive
16,O=C1N[C@@H](c2ccccc2)COCc2cn(nn2)CC[C@@H](Cc2ccc(C(F)(F)F)cc2)C(=O)N[C@@H](c2ccccc2)COCc2cn(nn2)CC[C@H]1Cc1ccc(C(F)(F)F)cc1,inactive
17,Fc1cccc(-c2csc(COc3ccccc3Cl)n2)c1,inactive
18,COc1ccc(S(=O)(=O)Nc2ccc3c(c2)C(=O)N([C@H](C)CO)C[C@H](C)[C@@H](CN(C)S(=O)(=O)c2ccc(Cl)cc2)OCCCC[C@H](C)O3)cc1,inactive
19,C[C@H]1CN([C@@H](C)CO)C(=O)c2cc(NC(=O)Cn3cnnn3)ccc2O[C@@H]1CN(C)S(=O)(=O)c1cn(C)cn1,inactive
20,COc1ccc(CN(C)C[C@H]2OCCCC[C@@H](C)Oc3ccc(NC(=O)Nc4c(C)noc4C)cc3C(=O)N([C@@H](C)CO)C[C@@H]2C)cc1,inactive

row,Structure (SMILES),growth inhibition call
1,Cc1ccc(S(=O)(=O)Nc2ccc3c(c2)C(=O)N([C@@H](C)CO)C[C@H](C)[C@H](CN(C)C(=O)C2CCCCC2)OCCCC[C@@H](C)O3)cc1,inactive
2,COc1ccccc1NC(=O)N(C)C[C@@H]1Oc2ncc(C#CCN(C)C)cc2C(=O)N([C@@H](C)CO)C[C@@H]1C,inactive
3,C[C@H]1CN([C@@H](C)CO)C(=O)c2cccc(NC(=O)c3ccncc3)c2O[C@@H]1CN(C)Cc1ccc(Oc2ccccc2)cc1,inactive
4,C[C@@H]1CCCCO[C@H](CN(C)C(=O)Nc2cccc3ccccc23)[C@H](C)CN([C@@H](C)CO)C(=O)c2cc(NC(=O)c3ccccc3)ccc2O1,inactive
5,C[C@H](CO)N1C[C@H](C)[C@H](CN(C)C(=O)c2ccncc2)Oc2cc(C#C[C@@H](C)O)ccc2S1(=O)=O,inactive
6,Cc1noc(C)c1NC(=O)Nc1ccc2c(c1)C(=O)N([C@@H](C)CO)C[C@H](C)[C@@H](CN(C)Cc1ccc3c(c1)OCO3)OCCCC[C@H](C)O2,inactive
7,C[C@@H]1CN([C@H](C)CO)C(=O)c2cccc(NS(=O)(=O)c3ccccc3)c2O[C@H]1CN(C)Cc1ccc(-c2ccccc2)cc1,inactive
8,COc1cc(S(=O)(=O)NCCN2CCN(S(=O)(=O)c3cc(OC)c(Cl)cc3OC)CC2)c(OC)cc1Cl,inactive
9,Cc1ccc(S(=O)(=O)N(C)C[C@H]2OCCCC[C@H](C)Oc3ccc(NC(=O)Nc4c(C)noc4C)cc3C(=O)N([C@@H](C)CO)C[C@@H]2C)cc1,inactive
10,C[C@@H]1CN([C@H](C)CO)C(=O)c2cc(NC(=O)C3CCCCC3)ccc2O[C@@H](C)CCCCO[C@H]1CN(C)Cc1ccncc1,inactive
11,COc1ccc(CN(C)C[C@H]2OCCCC[C@H](C)Oc3ccc(NC(=O)Nc4ccc(F)cc4)cc3C(=O)N([C@@H](C)CO)C[C@@H]2C)cc1,inactive
12,CS(=O)(=O)Nc1ccc2c(c1)[C@H]1C[C@@H](CC(=O)NCC3CC3)O[C@H](CO)[C@H]1O2,inactive
13,C[C@@H]1CCCCO[C@H](CN(C)CC2CC2)[C@H](C)CN([C@@H](C)CO)C(=O)c2cc(NC(=O)Nc3ccc(F)cc3)ccc2O1,inactive
14,COc1ccc(S(=O)(=O)N(C)C[C@H]2Oc3ccc(NC(=O)NC(C)C)cc3C(=O)N([C@@H](C)CO)C[C@@H]2C)cc1,inactive
15,C[C@H]1CN([C@@H](C)CO)C(=O)CCCn2cc(nn2)CO[C@H]1CN(C)C(=O)Nc1ccccc1C(F)(F)F,inactive
16,C[C@@H]1CCCCO[C@H](CN(C)C(=O)Nc2ccc(F)cc2)[C@@H](C)CN([C@H](C)CO)C(=O)c2cc(NC(=O)c3ccncc3)ccc2O1,inactive
17,O=C(O)c1ccc2[nH]cnc2n1,inactive
18,O=C(O)C[C@@H]1C=C[C@H](NC(=O)c2ccncc2)[C@@H](CO)O1,inactive
19,C[C@H]1CN([C@@H](C)CO)C(=O)c2cccc(NS(=O)(=O)c3ccc(Cl)cc3)c2O[C@H]1CN(C)Cc1ccc(C(=O)Nc2ccccc2N)cc1,inactive
20,CC(C)NC(=O)Nc1ccc2c(c1)CC(=O)N([C@@H](C)CO)C[C@H](C)[C@@H](CN(C)Cc1ccc(C(=O)O)cc1)O2,inactive
